± gives the standard deviation of the averaged measurements. Some of the results follow.
Test system: PfAP2-LT AP2 domain (GST-tagged)
Assay: gcPBM binding intensity (ln(normalized median fluorescence intensity)); higher = stronger DNA binding
In short: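 Probes on an Agilent 4 × 180k array were primer-extended, double-stranded and 36 bp long, taken from intergenic genomic regions, with negative controls added. GST-tagged P. falciparum DNA-binding domains from E. coli, about 25 μg on average, were applied to the array for 1 h in 1× PBS containing 1% milk, 0.2 mg/ml BSA, 0.5% salmon testes DNA and 0.03% Triton X-100. Binding intensity, obtained after Alexa488 anti-GST antibody detection and a 488 nm scan, is the highest Masliner-normalised natural-log median intensity across replicate spots of either probe orientation.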

Row | Sequence | gcPBM binding intensity (ln)
1 | TTTTATTATTTGTCTTGTACTCATTGTAAGAGTATG [XGTACX_site1538] | 8.7 ± 0.42
2 | AAAAAAAAAAAAATGGTGCAACTTTGTTAAAGGAAA [GTGCAC_site9950] | 8.57 ± 0.6
3 | ATTTAAAAGTTGGTAGTGCATTAAAAATAACAAAAA [GTGCAC_site9835] | 8.55 ± 0.53
4 | AATTTCTTCCATTGTAGTACTCAATTTTTTTTTGTT [XGTACX_site5847] | 9.05 ± 0.42
5 | GTGTAATATTATATATATATATATAATATATATACA [CACACA_negctrl_site263] | 8.86 ± 0.33
6 | CACATATACAAAAAGAAATGTTTAGTTGAAAATTAA [CACACA_negctrl_site1407] | 8.49 ± 0.51
7 | AAAAATTTGGCATACACACACACACGCACACGCACA [CACACA_site6422] | 10.2 ± 0.21
8 | AATTATACTCACGTTACACACACACTATAAATATAT [CACACA_site7863] | 9.48 ± 0.35
9 | ATTAATATGAATAAAACACACATATATAACTTGTAA [CACACA_site6989] | 8.86 ± 0.38
10 | TATTACATTATTCAAAAAAATTTATATGGTTATAGG [CACACA_negctrl_site1657] | 8.23 ± 0.37
11 | TGATAATAAGCATACACACACACACCCAAAAAAAAA [CACACA_site721] | 10.2 ± 0.25
12 | AAATAAAAAAAAAAAAAAAATAACTTAAATGGGATA [TGCATGCA_negctrl_site595] | 8.33 ± 0.58
13 | AACTAAATGTTATTCGCACACGGAATTTATTTAATG [CACACA_site3664] | 8.96 ± 0.36
14 | ATATATATATATATATATATATATATGATTATTACT [GTGCAC_negctrl_site109] | 9.9 ± 0.35
15 | TAAACTATATTTACATGTACATATAATATTAAATAA [XGTACX_site3528] | 8.49 ± 0.4
16 | CCTATAAAACCATATACACACATATAAATAAAAAAA [CACACA_site7809] | 9.02 ± 0.48
17 | AAAAAAAAATTAGGGGTGCCATTTGCTGCTGTGCTT [GTGCAC_site9913] | 8.87 ± 0.26
18 | TTTTGTATTTCTCACACACACATAAGTAAACAATAA [CACACA_site5105] | 9.18 ± 0.33
19 | TAGTAAAAGATATACACACACCAAAAAATATAATTA [CACACA_site7142] | 9.39 ± 0.4

Row | Sequence | gcPBM binding intensity (ln)
20 | AATTATATTCAAAATGGTACACACAATATTTAATTG [XGTACX_site5521] | 8.79 ± 0.49
21 | CAAAGCATTTTATCTACACACATATATAAATAAATA [CACACA_site7500] | 8.94 ± 0.33
22 | ATCTTTATTTTTAGCGCACACATAAAATAATAATAA [CACACA_site3458] | 9.04 ± 0.38
23 | TATTTTAACTTTTTTTCCTTTATTCATTTTTTTTTC [CACACA_negctrl_site971] | 8.54 ± 0.53
24 | TTTTTTTTTTTATGTGCACACAAAAGATGCTTATAT [CACACA_site2347] | 9.15 ± 0.45
25 | TGATGCAAGATATATACACACATATAAATATAAATA [CACACA_site7429] | 9.16 ± 0.43
26 | TTATGATAACTTTGCACACACTTAGGAAAAGTTATG [CACACA_site6836] | 9.01 ± 0.35
27 | TGATTATATAAAAAAAAGAAAAAAAAAAAAAAAAAA [CACACA_negctrl_site819] | 8.27 ± 0.42
28 | ATGCATCATTTATTTGCACACCTATTATATACTTTT [CACACA_site2097] | 9.2 ± 0.39
29 | TATATATATATAATATGTACATATATATATTCTTAA [XGTACX_site6154] | 8.7 ± 0.34
30 | ATAATTCATGTTTAGTGTACAAAAAATTAAAGCAAC [XGTACX_site8891] | 8.93 ± 0.41
31 | AAATAATTTATATGTAGTACATGTTGTAGATAATTT [XGTACX_site1031] | 8.79 ± 0.39
32 | GATATAGATATTAATTGTACATATTATTTATTGTTA [XGTACX_site846] | 8.76 ± 0.44
33 | TTCTAAAAAGGGTGTACACAAACGAATGGAAAATAA [CACACA_site5483] | 9.03 ± 0.43
34 | ATAATTTTTATTTGTACACACATACAGATATATTAT [CACACA_site4701] | 9.2 ± 0.42
35 | GATATGTACTAATACACACACATATATATATATATA [CACACA_site1022] | 10.2 ± 0.23
36 | AATAATACGTTAAATGTTCTTACAAGTTGGTTTCAT [CACACA_negctrl_site1029] | 8.76 ± 0.42
37 | TAAAGGTGTAAAACTGCATGCTGGAGAAAAGTAAAA [TGCATGCA_site591] | 8.98 ± 0.54
38 | ATTATATAATATAATGCATGTGTTAATGAAAAATCT [TGCATGCA_site426] | 8.75 ± 0.44

Row | Sequence | gcPBM binding intensity (ln)
39 | AAAAAAAAATTTGTATCACACACGTATTATAAAAAA [CACACA_site6] | 8.86 ± 0.47
40 | AAAAAAAAAAAAAAGTGTACCTTATTATACTTTAAT [XGTACX_site8439] | 8.46 ± 0.42
41 | CACACTAAAAGACACACACACACACGCATATAAATA [CACACA_site7874] | 10.3 ± 0.4
42 | AAATATATATATATATGTACACACACACATATAAAT [XGTACX_site847] | 9.87 ± 0.32
43 | TTGTAGGAATTTATTTTGACTGATAATTAATACGTT [GTGCAC_negctrl_site46] | 8.58 ± 0.55
44 | TAGTGTAAAAAATACGCATGTGTACAAATATAATAA [TGCATGCA_site498] | 9.27 ± 0.5
45 | ATTAAACATACATATACACACACACCCACCCACCCA [CACACA_site8057] | 10.22 ± 0.071
46 | TAACTTCAAACAAAATATGGTAAAAGTGGTTGAAAA [CACACA_negctrl_site42] | 8.71 ± 0.42
47 | AAAATACCCGGACACACACACATATATATATATATT [CACACA_site6137] | 9.88 ± 0.49
48 | CCATAGATATTTTATACACACATATAATATATTAAT [CACACA_site373] | 8.91 ± 0.42
49 | GATGATTCAATTTATGCACACTAAAAATTAATTATA [CACACA_site4308] | 8.61 ± 0.47
50 | ACCAAAAGGGGATGTAGTACAATATGATTAGAAGAA [XGTACX_site3773] | 8.95 ± 0.75
51 | ATAATCTGACAAATGTGTACACATATATATATATAT [XGTACX_site2379] | 9.66 ± 0.55
52 | AAATAATATATTCCTTGTACTTATTTCAATGAATTC [XGTACX_site7719] | 8.7 ± 0.49
53 | AAGAATCACCAAATATGTACACACCTTAACATGTTT [XGTACX_site4272] | 9.15 ± 0.38
54 | CCACTGTATGAATGCACACATTCATAGAATTGCTAT [CACACA_site2676] | 9.04 ± 0.36
55 | TAATAAGGTTACAACAAACACACAAAGGAATATACA [CACACA_site4089] | 9.14 ± 0.45
56 | TAATTTGTTAAAGGTTCACATATGGTATATACTTCT [XGTACX_negctrl_site292] | 8.85 ± 0.57

From the supplement of paper PMC11417369
